Experimental data as given in the supplement of paper PMC11417369.
The other results are listed elsewhere or left out.

The sequences below were run on PfHDP1 homeodomain (GST-tagged) (assay: gcPBM binding intensity (ln(normalized median fluorescence intensity)); higher = stronger DNA binding).
Outline: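 After 1 h on an Agilent 4 × 180k array of primer-extended double-stranded 36-bp intergenic genomic probes and negative controls, bound GST-tagged P. falciparum DNA-binding domains were detected with Alexa488 anti-GST antibody and scanned at 488 nm. The domains had been expressed in E. coli, and binding took place in 1× PBS with 1% milk, 0.2 mg/ml BSA, 0.5% salmon testes DNA and 0.03% Triton X-100. Binding intensity is the highest Masliner-normalised natural-log median intensity across replicate spots of either probe orientation.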

| Sequence | gcPBM binding intensity (ln) |
| --- | --- |
| ATAATGGAGAAATAAGCATGCATTATATTATAAAAA [TGCATGCA_site325] | 6.89 |
| TGAATATTTCTATATACACACATATAAATATAAATA [CACACA_site7593] | 6.41 |
| TTATCGGTATAATATAGTACATATAGATATATAATA [XGTACX_site1440] | 6.31 |
| TGATAATTTTTTACATGTACAAGTTTGTTTTTGCAT [XGTACX_site125] | 6.52 |
| ATATTACTTCCTAAGTGTACAAGTAAGGAGAAAAAA [XGTACX_site3921] | 6.56 |
| GATAAAATGGATGGATGTACATTATTTCCATATAAT [XGTACX_site7781] | 6.35 |
| AGATGTTTTTATATATGTACTTAAATACACAAATAT [XGTACX_site8250] | 6.5 |
| AAAAAAAAAAAAAACACACACACAAAATAAACAAAC [CACACA_site2720] | 6.86 |
| ATAATACACGATTATTTTCCCTTTATGTAAATATAT [CACACA_negctrl_site1107] | 6.62 |
| TATTTTATCTATTTGTGTACTTATATTTATGCAAAA [XGTACX_site1499] | 7.03 |
| TATATATATAATATTGCACACAAAATTAAAAGTAAA [CACACA_site7889] | 9.61 |
| AAAAAAAAAAAATGTGTGCACATTATTTCAACTTAA | 10 |
| ATAAATAATATATATACACACATATCTATACATATT [CACACA_site487] | 6.8 |
| AAATTATTAAAAAAAAGTACATATATATATATATAT [XGTACX_site8313] | 9.38 |
| TTTTTTTTTTTTTTATGTACGAAAGAAAAGCACATA [XGTACX_site8261] | 6.52 |
| TTTAGATAATTCATTACACACATGTATATTTATATA [CACACA_site7602] | 6.38 |
| TAACGAATTTAAATTTGTACATATATAAATATATAA [XGTACX_site2168] | 6.14 |
| ATCATCTATGTTATTACACACGTTATGTTATTATAA [CACACA_site5502] | 6.73 |
| AAATATTATAGCACCACACACTTATTTTATTTATAT [CACACA_site7133] | 7.04 |
| ACTAAACTTTTATGTACACACATATAACATTAATTT [CACACA_site5276] | 6.98 |
| TACGTAAAAATAGGACGTACTTATTTAGAAACCATA [XGTACX_site2498] | 6.43 |
| TTGGTACCTATAGATACACACATATATACCTATATA [CACACA_site5812] | 6.25 |
| TACAAAATGGGGAACACACACATATATATATATATA [CACACA_site3844] | 9.36 |

| Sequence | gcPBM binding intensity (ln) |
| --- | --- |
| TATATTCTTTATAGGTGTACTTAATAAATAAAAAAT [XGTACX_site5378] | 6.43 |
| TATCTAGTTACTCCTTGTACATAATAAATGATTTTT [XGTACX_site5674] | 6.64 |
| TATATATATGTGTTTACACACAATAATGAATTAAAA [CACACA_site4659] | 6.62 |
| TATGAACATAAATTTGCACACTGGATATAATATATA [CACACA_site2155] | 9.6 |
| AGAAAGAAAGAATACACACACACATATATAAATATC [CACACA_site7716] | 7 |
| ATTATCAATATGAAGGTGCATTTAAATAATATTTAC | 9.62 |
| ATATATTTATATATATGTACTTAAAACATTTCGATG [XGTACX_site328] | 6.25 |
| TTTTTATTTTTTTAGTATACGTACTAGGTTTGTTCT [XGTACX_site645] | 6.54 |
| AATGTAATATAAATATGTACATAATATATATAATTA [XGTACX_site4762] | 6.4 |
| ATATATATATTTTTATGAGGCATAAGTAATATTTTT [TGCATGCA_negctrl_site317] | 7.76 |
| AACAAGAAAAAAAAAAAAAAAAAAAAAAAATATTTT [XGTACX_negctrl_site428] | 5.78 |
| ATTTATATTTATGATACACACACGTATATTCACATA [CACACA_site460] | 6.83 |
| ATTTGTTTATAGGCCATAAAATATTTAATTCATTTG [CACACA_negctrl_site1824] | 6.34 |
| TTTTTCATAAATATATGTACATATATTTTATATAAC [XGTACX_site3402] | 6.76 |
| AGTATTATATTTGTATGTACGTAGTAATATATAAAA [XGTACX_site528] | 6.55 |
| AATGAAATATGGATGGGTACACATTTGATTTTATTA [XGTACX_site6155] | 6.31 |
| TATGAAAAAAAAAATACACACACGAGTTGTTATACA [CACACA_site3188] | 6.37 |
| TGTATGTATAGAAACACACATACATATATATAATAT [CACACA_site1405] | 6.41 |
| ATATATATAAACATATGTACACATATATATAATACA [XGTACX_site1848] | 6.76 |
| ATATAAAATATTAGTAGTACCATTAACAGTATTGTT [XGTACX_site5912] | 6.13 |
| ATTAAGATGTATATATGTACATATTACATACATATA [XGTACX_site8657] | 6.47 |
| TAAGAAAATATTTATGTATGCATGTCCTAATATTTC [TGCATGCA_site295] | 6.14 |
| AAAAAAAATTAATTAGTGCAAAATATATACAAAATA [GTGCAC_site9762] | 10.4 |

| Sequence | gcPBM binding intensity (ln) |
| --- | --- |
| TTTTTTTTTTTTTGTTGTACAATACTTAATCATTAT [XGTACX_site3422] | 6.52 |
| ATATATATATAATCAAGTACACAGTAATAAAAAGAA [XGTACX_site1070] | 8.21 |
| ATTGTGTTCATCAGCACACACAACATCATGCAATAA [CACACA_site6960] | 6.52 |
| AATAATAACTGTAGGTGTACGTAAAAAAAAAATTAT [XGTACX_site3133] | 6.98 |
| TCTATACCTATTCTTACACACATATGTATATATATA [CACACA_site563] | 7.31 |
| TTTTTTTTTTTTGAAACATGCATTGTTTTATTCTTA [TGCATGCA_site15] | 6.23 |
| AAAAAAAGATTATACACACACATATATAAACCTACA [CACACA_site710] | 6.77 |
| AATATAGATATAACCACACACATACATCTAATTCTA [CACACA_site1760] | 6.58 |
| AATGTATATATGTAATGTACATATGTAATGTATATA [XGTACX_site6509] | 6.82 |
| TTTTGTTTTGTTTTGTTTTGTTTTGTTTTATTTTAT [GTGCAC_negctrl_site383] | 6.67 |
| TGTTTCTTATTTTTTTCACACACTAAACATTTCAAA [CACACA_site2218] | 7.42 |
| GAAAAGAACAAGAGCATGCACTTAATAAGAATAATA | 8.93 |
| TTTCAAAATGTGTAAAATAAAAATAATATCATTACA [TGCATGCA_negctrl_site521] | 6.42 |
| ATGTGATATAAGTACACACACATATGTATATAGAAT [CACACA_site1823] | 7.3 |
| TTAATTTCATTTTCTACACACCTATCCTTTTTTTTT [CACACA_site772] | 6.38 |
| ATACATATTACATGTTGTACTCCAACAAAAATGCCC [XGTACX_site3201] | 6.67 |
| ACATCAAGAATTATTAAGAATACGGATAGATAAAAT [GTGCAC_negctrl_site261] | 6.51 |
| TAAATGCACATATACACACACCCAATTTTAAGTTTT [CACACA_site7428] | 11.1 |
| AATAAAAAAAGTTTTTTTTTTTTTTAAACAATAGAC [CACACA_negctrl_site1061] | 6.2 |
| TATATGTTTTAAAAGTGTACTTTAGTTTCAATTTTT [XGTACX_site4269] | 6.08 |
| AAGAATGTTAATAGTACACACAATTATTATATAAAT [CACACA_site3739] | 6.53 |
| AAAAATTTAATGAAATGTACATATATGTTATTAATA [XGTACX_site6091] | 6.85 |
| ATAATAATAATAAAAAGTACATTTAATTATATAGAA [XGTACX_site7742] | 6.51 |

| Sequence | gcPBM binding intensity (ln) |
| --- | --- |
| AATAACCACCAACACACACACATATATATATATATA [CACACA_site3540] | 9.37 |
| AAGAAAAATATATAAATAAATAAATATATAAATATA [CACACA_negctrl_site836] | 5.94 |
| TATTCTCTCTTATGAACACACATTTTTATTTTCAAA [CACACA_site7554] | 6.67 |
| TAAAAATATATATGATTGCACTTAGGACAATATATA | 7.49 |
| ATTAATATATTATCATGTACACAAAAATAATTTTAT [XGTACX_site7257] | 6.62 |
| GGAAACAAAAAATATATACACACTAATCATAAAAAA [CACACA_site7890] | 6.54 |
| AATTTAAAAATGGACACACACAAAAAATAATACTTA [CACACA_site250] | 6.85 |
| AAAAAAGTTGTATTTGCACACATAAAAAAAAGATAT [CACACA_site3839] | 10.3 |
| TTATAAATAAAAAATACACACATATATATATATATA [CACACA_site207] | 9.4 |
| AAAAATTAACAAAAGGTGCAATTTATTTATTAACGG | 9.05 |
| GTATATTATATTGGGTGTACCATATATAATATAATC [XGTACX_site8579] | 6.35 |
| TAGACAAAATATAATGCACACTATTATTTTTATTTA [CACACA_site5508] | 10.4 |
| TATTTTAATATGTATACATGCATACCTACTCATACA [TGCATGCA_site779] | 6.63 |
| AACTTGTATTTATACACACACACACTGTCTTTTTTT [CACACA_site7009] | 6.97 |
| TAAAATTTTATAAAGGAACACACATTTTTTTTTTTT [CACACA_site8740] | 6.24 |
| CAATCAAATGGACACACACACACCTAAACATAAAAG [CACACA_site5524] | 6.97 |
| CTTTTTTTTTTAAATTGTACAAATGTGATGTAATAG [XGTACX_site3219] | 6.66 |
| ATTAAAAAATTACAAGCATGCTTGTTAAAATTTTTT [TGCATGCA_site941] | 5.92 |
| GGAAAAGGTATCCGTTCACACATAAATGGATACCAT [CACACA_site5072] | 5.69 |
| AAAAAAAAAAAAATGTGTACATACATATATTTATAT [XGTACX_site3076] | 6.37 |
| TGGGCACCCATATACACACACAAATACAATGATAAA [CACACA_site4762] | 6.48 |
